Source: paper PMC12820563
This is one part of the list. The list includes weakly bound sequences.

Each sequence was assayed against T1, MBP-FoxP3dN (UniProt Q99JB6) (assay: PD-seq (MBP pull-down with sequencing)). Conditions: 20 mM Tris-HCl pH 7.5, 100 mM NaCl, 1.5 mM MgCl2, 0.4 uM protein, 0.1 uM dsDNA library, 30 min, room temperature, amylose pull-down; high values mean tight binding; double strand, one strand shown.
T1 sequence: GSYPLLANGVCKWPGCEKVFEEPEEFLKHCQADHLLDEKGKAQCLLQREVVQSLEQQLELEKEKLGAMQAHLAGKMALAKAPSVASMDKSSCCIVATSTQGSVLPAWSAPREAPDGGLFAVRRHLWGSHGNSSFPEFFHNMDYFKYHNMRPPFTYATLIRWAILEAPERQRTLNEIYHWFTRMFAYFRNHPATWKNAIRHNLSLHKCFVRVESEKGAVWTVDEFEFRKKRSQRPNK

| Sequence | binding signal (RPM ratio (pull-down/input)) |
| --- | --- |
| GATGATTGTTCTCCCAGCTGATGAATTAAATAACTCGAGTAAACAAATTTTCCTAATCTTTCTGTTCAAGCGCCATCTAC | 0.498 |
| GATGATTGTTCTCCCAGCTGATGAATTTTGGGGATCGAGTAAACAAATTTTCCTAATCTTTCTGTTCAAGCGCCATCTAC | 0.345 |
| GATGATTGTTCTCCCAGCTGATGAATTTTATCGTTCGAGTAAACAAATTTTCCTAATCTTTCTGTTCAAGCGCCATCTAC | 1.38 |
| GATGATTGTTCTCCCAGCTGATGAATTTAGCACCTCGAGTAAACAAATTTTCCTAATCTTTCTGTTCAAGCGCCATCTAC | 1.49 |
| GATGATTGTTCTCCCAGCTGATGAATTCGGCTTTTCGAGTAAACAAATTTTCCTAATCTTTCTGTTCAAGCGCCATCTAC | 2.77 |
| GATGATTGTTCTCCCAGCTGATGAATTAGTAAAGTCGAGTAAACAAATTTTCCTAATCTTTCTGTTCAAGCGCCATCTAC | 0.28 |
| GATGATTGTTCTCCCAGCTGATGAATTAGGCAATTCGAGTAAACAAATTTTCCTAATCTTTCTGTTCAAGCGCCATCTAC | 3.75 |
| GATGATTGTTCTCCCAGCTGATGAATTAACGCACTCGAGTAAACAAATTTTCCTAATCTTTCTGTTCAAGCGCCATCTAC | 0.836 |
| GATGATTGTTCTCCCAGCTGATGAATTCAGTTTTTCGAGTAAACAAATTTTCCTAATCTTTCTGTTCAAGCGCCATCTAC | 1.85 |
| GATGATTGTTCTCCCAGCTGATGAATTCACTAGCTCGAGTAAACAAATTTTCCTAATCTTTCTGTTCAAGCGCCATCTAC | 0.321 |
| GATGATTGTTCTCCCAGCTGATGAATTGTCGTGATCGAGTAAACAAATTTTCCTAATCTTTCTGTTCAAGCGCCATCTAC | 0.572 |
| GATGATTGTTCTCCCAGCTGATGAATTTCTGCGGTCGAGTAAACAAATTTTCCTAATCTTTCTGTTCAAGCGCCATCTAC | 0.261 |
| GATGATTGTTCTCCCAGCTGATGAATTGGTCGTTTCGAGTAAACAAATTTTCCTAATCTTTCTGTTCAAGCGCCATCTAC | 0.83 |
| GATGATTGTTCTCCCAGCTGATGAATTTTAACGCTCGAGTAAACAAATTTTCCTAATCTTTCTGTTCAAGCGCCATCTAC | 0.391 |
| GATGATTGTTCTCCCAGCTGATGAATTTCAGCAATCGAGTAAACAAATTTTCCTAATCTTTCTGTTCAAGCGCCATCTAC | 1.94 |
| GATGATTGTTCTCCCAGCTGATGAATTTGACTCTTCGAGTAAACAAATTTTCCTAATCTTTCTGTTCAAGCGCCATCTAC | 0.551 |
| GATGATTGTTCTCCCAGCTGATGAATTTAGTCGCTCGAGTAAACAAATTTTCCTAATCTTTCTGTTCAAGCGCCATCTAC | 0.513 |
| GATGATTGTTCTCCCAGCTGATGAATTTTGCATCTCGAGTAAACAAATTTTCCTAATCTTTCTGTTCAAGCGCCATCTAC | 7.18 |
| GATGATTGTTCTCCCAGCTGATGAATTAAGGTTATCGAGTAAACAAATTTTCCTAATCTTTCTGTTCAAGCGCCATCTAC | 0.726 |
| GATGATTGTTCTCCCAGCTGATGAATTCCGCGCATCGAGTAAACAAATTTTCCTAATCTTTCTGTTCAAGCGCCATCTAC | 1.39 |
| GATGATTGTTCTCCCAGCTGATGAATTAAATAAATCGAGTAAACAAATTTTCCTAATCTTTCTGTTCAAGCGCCATCTAC | 0.375 |

| Sequence | binding signal (RPM ratio (pull-down/input)) |
| --- | --- |
| GATGATTGTTCTCCCAGCTGATGAATTGGTAATATCGAGTAAACAAATTTTCCTAATCTTTCTGTTCAAGCGCCATCTAC | 0.681 |
| GATGATTGTTCTCCCAGCTGATGAATTGACCTGTTCGAGTAAACAAATTTTCCTAATCTTTCTGTTCAAGCGCCATCTAC | 0.348 |
| GATGATTGTTCTCCCAGCTGATGAATTACCCGACTCGAGTAAACAAATTTTCCTAATCTTTCTGTTCAAGCGCCATCTAC | 0.247 |
| GATGATTGTTCTCCCAGCTGATGAATTCAGACGTTCGAGTAAACAAATTTTCCTAATCTTTCTGTTCAAGCGCCATCTAC | 0.336 |
| GATGATTGTTCTCCCAGCTGATGAATTTTAGCTCTCGAGTAAACAAATTTTCCTAATCTTTCTGTTCAAGCGCCATCTAC | 0.335 |
| GATGATTGTTCTCCCAGCTGATGAATTTGCGACATCGAGTAAACAAATTTTCCTAATCTTTCTGTTCAAGCGCCATCTAC | 1.3 |
| GATGATTGTTCTCCCAGCTGATGAATTGGATGAGTCGAGTAAACAAATTTTCCTAATCTTTCTGTTCAAGCGCCATCTAC | 0.415 |
| GATGATTGTTCTCCCAGCTGATGAATTAACGTAATCGAGTAAACAAATTTTCCTAATCTTTCTGTTCAAGCGCCATCTAC | 0.586 |
| GATGATTGTTCTCCCAGCTGATGAATTACGACGTTCGAGTAAACAAATTTTCCTAATCTTTCTGTTCAAGCGCCATCTAC | 0.637 |
| GATGATTGTTCTCCCAGCTGATGAATTGTCTCTGTCGAGTAAACAAATTTTCCTAATCTTTCTGTTCAAGCGCCATCTAC | 0.348 |
| GATGATTGTTCTCCCAGCTGATGAATTGTCTGTATCGAGTAAACAAATTTTCCTAATCTTTCTGTTCAAGCGCCATCTAC | 0.624 |
| GATGATTGTTCTCCCAGCTGATGAATTGACACGATCGAGTAAACAAATTTTCCTAATCTTTCTGTTCAAGCGCCATCTAC | 0.397 |
| GATGATTGTTCTCCCAGCTGATGAATTGGTGTGATCGAGTAAACAAATTTTCCTAATCTTTCTGTTCAAGCGCCATCTAC | 0.897 |
| GATGATTGTTCTCCCAGCTGATGAATTACTGGTTTCGAGTAAACAAATTTTCCTAATCTTTCTGTTCAAGCGCCATCTAC | 0.492 |
| GATGATTGTTCTCCCAGCTGATGAATTAATGGGCTCGAGTAAACAAATTTTCCTAATCTTTCTGTTCAAGCGCCATCTAC | 0.419 |
| GATGATTGTTCTCCCAGCTGATGAATTAATTTGGTCGAGTAAACAAATTTTCCTAATCTTTCTGTTCAAGCGCCATCTAC | 2.36 |
| GATGATTGTTCTCCCAGCTGATGAATTAACTTGCTCGAGTAAACAAATTTTCCTAATCTTTCTGTTCAAGCGCCATCTAC | 0.442 |
| GATGATTGTTCTCCCAGCTGATGAATTCTTGCGTTCGAGTAAACAAATTTTCCTAATCTTTCTGTTCAAGCGCCATCTAC | 1.43 |
| GATGATTGTTCTCCCAGCTGATGAATTGTGCGGCTCGAGTAAACAAATTTTCCTAATCTTTCTGTTCAAGCGCCATCTAC | 1.63 |
| GATGATTGTTCTCCCAGCTGATGAATTGTTTTCATCGAGTAAACAAATTTTCCTAATCTTTCTGTTCAAGCGCCATCTAC | 3.3 |
| GATGATTGTTCTCCCAGCTGATGAATTAGGTACATCGAGTAAACAAATTTTCCTAATCTTTCTGTTCAAGCGCCATCTAC | 0.56 |

| Sequence | binding signal (RPM ratio (pull-down/input)) |
| --- | --- |
| GATGATTGTTCTCCCAGCTGATGAATTTGTGAATTCGAGTAAACAAATTTTCCTAATCTTTCTGTTCAAGCGCCATCTAC | 1.45 |
| GATGATTGTTCTCCCAGCTGATGAATTAGTAGATTCGAGTAAACAAATTTTCCTAATCTTTCTGTTCAAGCGCCATCTAC | 0.723 |
| GATGATTGTTCTCCCAGCTGATGAATTGGGACCTTCGAGTAAACAAATTTTCCTAATCTTTCTGTTCAAGCGCCATCTAC | 0.351 |
| GATGATTGTTCTCCCAGCTGATGAATTGATGCTTTCGAGTAAACAAATTTTCCTAATCTTTCTGTTCAAGCGCCATCTAC | 2.5 |
| GATGATTGTTCTCCCAGCTGATGAATTGGTGCCTTCGAGTAAACAAATTTTCCTAATCTTTCTGTTCAAGCGCCATCTAC | 2.34 |
| GATGATTGTTCTCCCAGCTGATGAATTATAACGTTCGAGTAAACAAATTTTCCTAATCTTTCTGTTCAAGCGCCATCTAC | 0.573 |
| GATGATTGTTCTCCCAGCTGATGAATTGAGCATTTCGAGTAAACAAATTTTCCTAATCTTTCTGTTCAAGCGCCATCTAC | 6.08 |
| GATGATTGTTCTCCCAGCTGATGAATTGCCATTTTCGAGTAAACAAATTTTCCTAATCTTTCTGTTCAAGCGCCATCTAC | 1.02 |
| GATGATTGTTCTCCCAGCTGATGAATTAGAGTTCTCGAGTAAACAAATTTTCCTAATCTTTCTGTTCAAGCGCCATCTAC | 0.722 |
| GATGATTGTTCTCCCAGCTGATGAATTTGTCCTATCGAGTAAACAAATTTTCCTAATCTTTCTGTTCAAGCGCCATCTAC | 2.73 |
| GATGATTGTTCTCCCAGCTGATGAATTGAGCGCTTCGAGTAAACAAATTTTCCTAATCTTTCTGTTCAAGCGCCATCTAC | 0.62 |
| GATGATTGTTCTCCCAGCTGATGAATTACAGTATTCGAGTAAACAAATTTTCCTAATCTTTCTGTTCAAGCGCCATCTAC | 1.22 |
| GATGATTGTTCTCCCAGCTGATGAATTACGGGAGTCGAGTAAACAAATTTTCCTAATCTTTCTGTTCAAGCGCCATCTAC | 0.305 |
| GATGATTGTTCTCCCAGCTGATGAATTCATCCCGTCGAGTAAACAAATTTTCCTAATCTTTCTGTTCAAGCGCCATCTAC | 0.339 |
| GATGATTGTTCTCCCAGCTGATGAATTGCTTATTTCGAGTAAACAAATTTTCCTAATCTTTCTGTTCAAGCGCCATCTAC | 2.46 |
| GATGATTGTTCTCCCAGCTGATGAATTCGAAAGCTCGAGTAAACAAATTTTCCTAATCTTTCTGTTCAAGCGCCATCTAC | 0.226 |
| GATGATTGTTCTCCCAGCTGATGAATTAAATGAATCGAGTAAACAAATTTTCCTAATCTTTCTGTTCAAGCGCCATCTAC | 0.236 |
| GATGATTGTTCTCCCAGCTGATGAATTGTTTCGATCGAGTAAACAAATTTTCCTAATCTTTCTGTTCAAGCGCCATCTAC | 0.819 |
| GATGATTGTTCTCCCAGCTGATGAATTTTCATCTTCGAGTAAACAAATTTTCCTAATCTTTCTGTTCAAGCGCCATCTAC | 0.357 |
| GATGATTGTTCTCCCAGCTGATGAATTTGCCTGTTCGAGTAAACAAATTTTCCTAATCTTTCTGTTCAAGCGCCATCTAC | 1.19 |
| GATGATTGTTCTCCCAGCTGATGAATTTAGACGTTCGAGTAAACAAATTTTCCTAATCTTTCTGTTCAAGCGCCATCTAC | 0.567 |
